# Results taken from PubChem BioAssay (Tox21).
# Several values for one entry are separate records, joined by “and”; a condition that tells them apart may be missing. Identical values can stand only once. This list was built around the results that the source calls inconclusive (neither active nor inactive); the mix of calls is not that of the screen. For some assays here: No potency is given beside an inconclusive call; the fits are too rough. Activity calls are given as the source filed them. The call rests on the fitted dose curve; in most records, active means well fitted curve in the direction sought with a large enough effect in the repeat runs; inconclusive means weak or mixed curves; inactive means no such curve, though single readings can be large; an effect the other way counts as inactive or inconclusive.
# Key:
# [1] = qHTS RealTime-Glo MT Cell Viability Assay in HEK293 cells - 24 hour (AID 1224886); further: nearly all actives have a fitted effect of over 50% in size
# Summary of the method: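 Nonlytic real-time viability readout: viable cells convert prosubstrate to NanoLuc substrate, giving luminescence proportional to live cell number. HEK293, 600 cells/well, compound added after 5 h, continuous culture at 37 C.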
# [2] = qHTS RealTime-Glo MT Cell Viability Assay in HEK293 cells - 8 hour (AID 1224887); further: nearly all actives have a fitted effect of over 50% in size
# Summary of the method: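 qHTS format; HEK293 cells with NanoLuc/prosubstrate reagent, 37 C/5% CO2 for 5 h pre-dosing; compounds 23 nL in DMSO; luminescence at each time point reflects viable cells.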
# [3] = qHTS assay to identify small molecule antagonists of the estrogen receptor alpha (ER-alpha) signaling pathway using the BG1 cell line in the presence of 0.1 nM 17-beta-estradiol - cell viability counter screen (AID 1259241); further: nearly all actives have a fitted effect of over 40% in size
# Summary of the method: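 The cell line endogenously expresses full-length ER-alpha and carries four EREs driving luciferase. Cells are cultured 5 days hormone-free, treated 22 hr with compounds and 0.1 nM estradiol, then viability is read by fluorescence.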
# [4] = A CellTox Green Cytotoxicity Assay to monitor cytotoxicity in HEK293 cells - 16 hour (AID 1224888); further: nearly all actives have a fitted effect of over 35% in size
# Summary of the method: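 Each value comes from one timepoint of a single continuous run in which HEK293 cells with CellTox Green were exposed to compound for up to 40 h at 37 C, dye fluorescence rising with cell death.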
# [5] = qHTS RealTime-Glo MT Cell Viability Assay in HepG2 cells - 0 hour (AID 1224889); further: nearly all actives have a fitted effect of over 50% in size
# Summary of the method: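 Luminescence read-out: viable HepG2 cells reduce a prosubstrate to a NanoLuc substrate, giving a signal proportional to live cell number. Reads taken at 0, 8, 16, 24, 32 and 40 h of compound exposure at 37 C.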
# Potency means the concentration at half of the fitted maximal effect; tags describe the fitted curve by direction and shape.
smiles,measurement,setting,value
Cc1cccc(C)c1OCC(=O)N[C@@H](Cc1ccccc1)[C@@H](O)C[C@H](Cc1ccccc1)NC(=O)[C@H](C(C)C)N1CCCNC1=O,Potency,[1],active: 23.9 µM
same,Potency,[2],"inconclusive [cytotoxic, partial curve]"
same,Potency,[3],"inconclusive [cytotoxic, partial curve]"
OC[C@@H](O)[C@@H](O)[C@H](O)[C@H](O)CO,Potency,[2],inactive
CCCCCCCCCC(=O)N(C)C,Potency,[1],inactive
same,Potency,[4],"inconclusive [activator, single point]"
CC(CN(C)C)CN1c2ccccc2CCc2ccccc21 (centres undefined),Potency,[1],"inconclusive [cytotoxic, partial curve]"
same,Potency,[4],inactive
OC[C@H]1O[C@@H]2O[C@H]3[C@H](O)[C@@H](O)[C@@H](O[C@H]4[C@H](O)[C@@H](O)[C@@H](O[C@H]5[C@H](O)[C@@H](O)[C@@H](O[C@H]6[C@H](O)[C@@H](O)[C@@H](O[C@H]7[C@H](O)[C@@H](O)[C@@H](O[C@H]1[C@H](O)[C@H]2O)O[C@@H]7CO)O[C@@H]6CO)O[C@@H]5CO)O[C@@H]4CO)O[C@@H]3CO,Potency,[2],inactive
CC(=O)O[C@]1(C(C)=O)CC[C@H]2[C@@H]3C=C(Cl)C4=CC(=O)CC[C@]4(C)[C@H]3CC[C@@]21C,Potency,[1],"inconclusive [cytotoxic, partial curve]"
same,Potency,[2],"inconclusive [cytotoxic, partial curve]"
same,Potency,[5],active: 346 nM and active: 477 nM
COc1cccc(OC)c1C(=O)O,Potency,[1],inactive
same,Potency,[4],"inconclusive [activator, single point]"
